Measured values: PubChem BioAssay AID1745845 (National Center for Advancing Translational Sciences (NCATS), 2022)
Hit rate of the full screen: of about 360,000 compounds, about 2,600 (0.72%) were called active. The inconclusive results got no clear call from the source; some entries with a clear call stand among them for comparison. Calls come from the whole dose curve; as a rule, active = well fitted inhibition curve with a large enough effect; inconclusive = small, poorly fitted or top-dose-only effect; inactive = no such curve, though single readings can be large or run the other way. A potency beside an inconclusive call is a rough fit, not a confirmed value.

experiment: Primary qHTS for Inhibitors of ATXN expression; conditions: HEK-293 ATXN2-luciferase reporter, luminescence, 24 h; activity change, negative = inhibition: at 57 µM (top of the series); note: nearly all actives have a fitted effect of over 55% in size
Method in brief: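 qHTS (up to 57 uM final) was run with 24 h compound exposure of reporter cells at 37 °C. Each well was multiplexed: SteadyGlo luminescence measured ATXN2-luciferase expression after a fluorogenic Gly-Phe-AFC viability readout (25 uM final).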
% is set by controls: 0 for no effect and ±100 for the full control effect; potency is the fitted concentration of half-maximal effect; tags give direction and shape of the fitted curve.

Structure (SMILES)	Potency	activity change, negative = inhibition
Cc1ccn2c(NC3CCCCC3)c(-c3cccc(SC4CCCCC4)c3)nc2c1	inconclusive: 31.6 µM [inhibitor, single point]	–
Cn1nc(-c2ccccc2F)c2cc(C(=O)NCc3cccc(Cl)c3)sc21	inconclusive: 3.16 µM [inhibitor, partial curve, poor fit]	–
Cc1ccc(C)c(NC(=O)c2nnn(Cc3ccc(F)cc3Cl)c2N)c1	inconclusive: 35.5 µM [inhibitor, single point]	–
Cc1cccc(CSc2nnc(CCCCCN)o2)c1	inconclusive: 10 µM [inhibitor, partial curve]	–
Cc1cc(CSc2ccccc2)ccc1NC(=O)COc1ccccc1	–	inactive: 3.83%
COc1cccc(-c2nnc3n2N=C(C(C)(C)C)CS3)c1	inconclusive: 39.8 µM [inhibitor, single point]	–
COc1cc(CNc2ccc(N3CCCC3)cc2)cc(Cl)c1OC	inconclusive: 37.7 µM [inhibitor, single point]	–
O=C(Nc1ccc(F)cc1)c1cc2cc3ccc(Cl)cc3nc2o1	inconclusive: 3.55 µM [inhibitor, single point]	–
C[C@@H]1CN([C@@H](C)CO)S(=O)(=O)c2ccc(Br)cc2O[C@H]1CN(C)C(=O)C1CCCCC1	–	inactive: -18.1%
O=C(Nc1ccccc1F)c1ccc2c(c1)CCN2S(=O)(=O)c1ccccc1	–	inactive: -9.53%
CCc1nc2c(OCCC3CCCCC3)cccn2c1N(C)C(=O)c1ccccc1F	inconclusive: 25.1 µM [inhibitor, partial curve]	–
Nc1cccnc1Sc1cccc(Cl)c1	–	inactive: 2.15%
CCCCN(CC)Cc1ccc(CNC(=O)Nc2ccc(F)cc2)o1	–	inactive: -13.5%
COc1cc(OC)cc(-c2c(-c3cccs3)c3cc(-c4ccn[nH]4)ccc3n2C)c1	inconclusive: 28.2 µM [inhibitor, single point]	–
COc1cc2c(cc1NC(=O)COc1ccc(Cl)cc1)oc1ccccc12	–	inactive: -2%
CCCCCC(=O)Nc1nc(C)c(-c2csc(Nc3ccccc3OC)n2)s1	–	inactive: -0.799%
CN(CCc1ccccc1)C(c1ccnc2ccccc12)c1nnnn1-c1ccc2c(c1)OCCO2 (stereo not given)	inconclusive: 22.4 µM [inhibitor, single point]	–
CCOC(=O)CNC(=S)N(Cc1ccccc1)Cc1ccccc1F	–	inactive: -19%
CCn1c(C)c(C(C)=O)c(N2CCN(C(c3ccccc3)c3ccccc3)CC2)nc1=S	inconclusive: 37.7 µM [inhibitor, single point]	–
O=C(COc1ccc(Br)cc1Cl)NC(=S)N1CCc2ccccc21	inconclusive: 39.8 µM [inhibitor, single point]	–
S=C1NC[C@H](c2ccccc2)N1CCCCC1CCCCC1	inconclusive: 35.5 µM [inhibitor, partial curve, poor fit]	–
CCCc1cc(=O)[nH]c(SCC(=O)Nc2sc(C(N)=O)c(C)c2C(=O)OCCOC)n1	inconclusive: 15.8 µM [inhibitor, partial curve, poor fit]	–

Structure (SMILES)	Potency	activity change, negative = inhibition
CN(C)CCCN(C(=O)c1ccc(S(=O)(=O)N2CCc3ccccc32)cc1)c1nc2ccc(F)cc2s1	inconclusive: 17.8 µM [inhibitor, partial curve, poor fit]	–
O=C(Nc1cccc(C(F)(F)F)c1)C1CCN(S(=O)(=O)c2cccs2)CC1	inconclusive: 22.4 µM [inhibitor, single point]	–
OC(c1cc(-c2cccc(Cl)c2)nc2ccccc12)C1CCCCN1 (stereo not given)	inconclusive: 22.4 µM [inhibitor, partial curve, poor fit]	–
CCc1ccc(-c2nnn(CCC(=O)OC)n2)cc1	inconclusive: 3.98 µM [inhibitor, full curve]	–
CCC1CCC(c2nnc(-c3ccc(Br)cc3)o2)CC1 (stereo not given)	–	inactive: 44.1%
CCN(CC)CCOc1c(Br)ccc2c1sc1nc3n(c(=O)c12)CCC3	inconclusive: 22.4 µM [inhibitor, partial curve, poor fit]	–
COc1ccc(Br)cc1/C=C/C(=O)c1ccc(NC(C)=O)cc1	active: 22.4 µM	–
Cc1ccc(Nc2c(-c3ccc(C)o3)nc3cccc(C)n23)cc1	inconclusive: 39.8 µM [inhibitor, single point]	–
CC(C)n1cnc2c(Nc3cccc(Cl)c3)nc(N(CCO)CCCO)nc21	inconclusive: 12.6 µM [inhibitor, partial curve]	–
O=c1[nH]c(=S)[nH]c2c1C(c1ccc(Cl)cc1)OC(C1CCCCC1)C2 (stereo not given)	inconclusive: 39.8 µM [inhibitor, partial curve, poor fit]	–
COc1ccc(Cn2c(SCc3ccc(C)cc3)nc3cc(OC)c(OC)cc3c2=N)cc1Cl	active: 28.2 µM	–
COc1cccc2c1C1COC3C4CC(C(=O)O)C(C(C2)N13)N4C (stereo not given)	active: 10.6 µM	–
CC(=O)N(CCCN(C)C)c1nc2ccc(C)cc2s1	inconclusive: 15.8 µM [inhibitor, partial curve, poor fit]	–
C=C(C)COc1ccc(-c2n[nH]c(C)c2-c2ccccc2)c(O)c1	inconclusive: 31.6 µM [inhibitor, single point]	–
CC(=O)c1ccc(N2CCN(C(=O)COc3ccc4c(c3)CCC4)CC2)cc1	inconclusive: 8.91 µM [inhibitor, partial curve, poor fit]	–
COc1ccc(S(=O)(=O)N(C)C[C@@H]2Oc3cc(Br)ccc3S(=O)(=O)N([C@H](C)CO)C[C@@H]2C)cc1	inconclusive: 20 µM [inhibitor, partial curve]	–
O=C(CCCSc1nc2ccccc2[nH]1)N1CCN(c2ccc([N+](=O)[O-])cc2)CC1	inconclusive: 28.2 µM [inhibitor, single point]	–
COc1ccc(S(=O)(=O)N2CCCC(C(=O)Nc3cccc(C(C)=O)c3)C2)cc1 (stereo not given)	–	inactive: -8.41%
Cc1c(-c2ccccc2)oc2c(C(=O)N3CCN(c4ccccc4F)CC3)cccc2c1=O	–	inactive: 35.7%
O=C(CCl)Nc1cc(S(=O)(=O)N2CCCCCC2)ccc1Cl	inconclusive: 39.8 µM [inhibitor, single point]	–
COc1ccc(Cc2nnc(NC(=O)Nc3ccccc3)s2)cc1OC	inconclusive: 37.7 µM [inhibitor, single point]	–
CCN(CC)C(=O)[C@H]1C[C@H](CC(=O)NCCC2=CCCCC2)C(=O)N2CCc3c([nH]c4ccc(Cl)cc34)[C@]12C	inconclusive: 39.8 µM [inhibitor, single point]	–

Structure (SMILES)	Potency	activity change, negative = inhibition
Cc1ccc2oc(=O)n(Cc3ccccc3Cl)c2c1	–	inactive: 8.68%
CCC(=O)c1ccc(OCCN2CCOCC2)cc1	–	inactive: 8.81%
O=C(CSc1nnc(-c2ccc(Cl)cc2Cl)n1C1CCCCC1)N1CCCC1	–	inactive: -7.81%
C=CCn1c(=O)[nH]c(=O)c2c(N)c(C(=O)c3ccc(OC)cc3)sc21	inconclusive: 0.251 µM [inhibitor, full curve, poor fit]	–
CCC(CC)C(=O)N(C)c1c(C)nc2c(OCC3CCCCC3)cccn12	inconclusive: 28.2 µM [inhibitor, single point]	–
N=c1c(S(=O)(=O)c2ccc(Br)cc2)cc2c(=O)n3ccccc3nc2n1C1CCCCC1	inconclusive: 28.2 µM [inhibitor, partial curve, poor fit]	–
Cc1nn(Cc2ccc(Cl)cc2)c(C)c1NC(=O)c1cc(-c2ccc3c(c2)OCO3)on1	inconclusive: 31.6 µM [inhibitor, single point]	–
CC(=O)Oc1c(C)cc(Cl)cc1C(=O)Nc1ccc([N+](=O)[O-])cc1Cl	inconclusive: 1.12 µM [inhibitor, full curve, poor fit]	–
COc1ccc(-c2noc(C)c2-c2ccc3ccccc3n2)c(O)c1	inconclusive: 12.6 µM [inhibitor, partial curve, poor fit]	–
CCOC(=O)c1ccccc1OC(=O)NNc1ccccc1	inconclusive: 1.78 µM [inhibitor, partial curve, poor fit]	–
CCc1ccc(OCC(=O)Nc2ncn[nH]2)c(Br)c1	inconclusive: 39.8 µM [inhibitor, single point]	–
CCn1cc([N+](=O)[O-])c(C(=O)N2N=C(c3ccc4ccccc4c3)CC2c2ccccc2O)n1 (stereo not given)	inconclusive: 39.8 µM [inhibitor, single point]	–
c1ccc2c(Nc3nc(N4CCOCC4)c4ccccc4n3)cccc2c1	inconclusive: 0.0532 µM [inhibitor, partial curve, poor fit]	–
COCCc1ccc(OCC2CO2)cc1 (stereo not given)	–	inactive: 6.84%
Cc1nn(-c2cccc(C(F)(F)F)c2)c(=O)c2ccccc12	–	inactive: -0.427%
Cc1cc(C)n(-c2nc(SCCN(C)C)c3c4c(sc3n2)CCCC4)n1	inconclusive: 14.1 µM [inhibitor, partial curve]	–
C=CCc1ccc(OCC(O)CN2CCN(Cc3ccc(Cl)cc3)CC2)c(OC)c1 (stereo not given)	–	inactive: -15.6%
COc1nn(-c2ccccc2)c(=O)c(Cl)c1Cl	inconclusive: 39.8 µM [inhibitor, partial curve, poor fit]	–
CC(=O)NC(C)(c1ccccc1)c1nc(-c2cc(F)cc(F)c2)cs1 (stereo not given)	–	inactive: 3.06%
Cc1c2oc3c(C)ccc(C(=O)N[C@@H]4C(=O)N[C@H](C(C)C)C(=O)N5CCC[C@H]5C(=O)N(C)CC(=O)N(C)[C@@H](C(C)C)C(=O)O[C@@H]4C)c3nc-2c(C(=O)N[C@@H]2C(=O)N[C@H](C(C)C)C(=O)N3CCC[C@H]3C(=O)N(C)CC(=O)N(C)[C@@H](C(C)C)C(=O)O[C@@H]2C)c(N)c1=O	active: 1 µM	–
O=C(NNC(=S)NC(=O)c1cccc([N+](=O)[O-])c1)c1ccc(Br)cc1	inconclusive: 17.8 µM [inhibitor, partial curve]	–
